# Hit rate of the full screen: of about 52,000 compounds, about 1,700 (3.3%) were called active. Cut-off read from the data, not from the text of the source: active = survival mostly below about 52% (no sharp cut-off); inactive = mostly above about 56%. Some of the results follow.
# Tested on: Wild type
# Assay: S. aureus survival, RN4220 and DeltatarO strains – OD600, teichoic acid synthesis inhibitors, primary screen (AID 463173)
# Settings: S. aureus RN4220 wild type/DeltatarO growth, OD600, 18 h, active compounds read low, screened at 18.75 µg/mL (by protocol)
row,SMILES,survival
1,O=C(CC1(c2ccc(Cl)cc2)C(=O)c2ccccc2C1=O)N1CCOCC1,inactive: 111%
2,O=C1CC(c2ccc(Cl)cc2)Sc2nc(-c3ccc(F)cc3)nn21 (configuration not stated),inactive: 78%
3,CCOc1ccc(CNS(=O)(=O)c2cc(-c3cc(C)no3)ccc2C)cc1OC,inactive: 73%
4,CNc1cc(=O)n(C)c(=O)[nH]1,inactive: 107%
5,CCc1ccc(-n2c(=O)c3c4c(sc3n(CC(=O)NC(C)CC)c2=O)CCCC4)cc1 (configuration not stated),inactive: 97%
6,Cn1c(=O)[nH]c2cc(-c3noc(-c4ccc(F)cc4)n3)ccc21,inactive: 131%
7,CCn1c(=O)cc(SCC(=O)NCCc2ccc(OC)cc2OC)c2ccccc21,inactive: 66%
8,COCCCNC(=O)CSc1nc(-c2ccccc2)[nH]c1-c1ccc(C)cc1,inactive: 83%
9,CCc1cnc2c(c1SCC(=O)Nc1ccc(C)cc1C)c(=O)n(C)c(=O)n2C,inactive: 68%
10,CCCn1c(=O)c2sccc2n2c(CCCC(=O)Nc3cccc(CC)c3)nnc12,inactive: 97%
11,CCn1c(Cc2ccccc2)nnc1SCC(=O)Nc1ccccc1,inactive: 94%
12,Cc1ccc(CCNc2nc3c(S(=O)(=O)c4ccc(C)cc4)nnn3c3ccsc23)cc1,inactive: 101%
13,CC(C)c1ccc(NC(=O)c2ccc(NC(=O)CCS(=O)(=O)c3cccs3)cc2)cc1,inactive: 81%
14,Cc1ccc(-n2ncc3c(NCCCc4ccccc4)ncnc32)cc1C,inactive: 63%
15,CC1(C)CC(=NNC(=O)c2n[nH]c3c2CCC3)CC(C)(C)N1,inactive: 102%
16,COc1cc(CNC(=O)c2cc3n(n2)CCCN(Cc2ccc(C)cc2)C3=O)cc(OC)c1OC,inactive: 49%
17,Cc1c(NC(=O)c2sc3c([N+](=O)[O-])cccc3c2Cl)cccc1-c1nc2ccccc2o1,inactive: 73%
18,Cc1ccc(-c2c3c(=O)n(C)c(=O)n(C)c3c3c(C(F)(F)F)nc4ccccc4n23)cc1,inactive: 72%
19,CCOC(=O)c1[nH]c(C)c(CCC(=O)Nc2ccc(N(CC)CC)cc2C)c1C,inactive: 77%

row,SMILES,survival
1,CCS(=O)(=O)N1CC(=O)N(c2cccc(C)c2C)C(C)(C(=O)NC2CCCCC2)C1 (configuration not stated),inactive: 89%
2,CCc1ccc(CNC(=O)CCN2C(=O)COc3ccccc32)cc1,inactive: 87%
3,Cc1cc(C)cc(NC(=O)Cn2nnc(C(=O)Nc3cc(C)cc(C)c3)c2N)c1,inactive: 98%
4,CC(C)CCNC(=O)c1cc2sccc2n1Cc1ccc(F)cc1,inactive: 124%
5,Cc1nc(-c2ccc(F)cc2)sc1CCNC(=O)c1ccco1,inactive: 136%
6,CSc1ccc(CCNC(=O)C(C)n2c(C)c3cnn(-c4ccccc4)c(=O)c3c2C)cc1 (configuration not stated),inactive: 78%
7,CN1c2ccccc2Oc2nnc(N3CCN(Cc4ccccc4)CC3)cc21,inactive: 110%
8,COc1cc(NC(=O)Cn2c(C)cc3ccccc3c2=O)cc(OC)c1OC,inactive: 68%
9,COc1cc(OC)cc(C(=O)Nc2c(C(=O)Nc3ccc(F)cc3)oc3ccccc23)c1,inactive: 57%
10,COC(=O)c1cc2oc(C)cc2n1CC(=O)Nc1ccc(C)cc1C,inactive: 90%
11,CC(=O)Nc1cc(C(=O)NCc2ccc(F)cc2Cl)ccc1Sc1ccc(Cl)cc1,inactive: 126%
12,O=C(Cn1c(=O)n(Cc2ccccc2)c(=O)c2oc3ccccc3c21)Nc1ccc(Cl)cc1,inactive: 56%
13,Cc1ccc(/C=C/c2onc(C)c2S(=O)(=O)N2CCC(C(=O)N3CCOc4ccccc43)CC2)cc1,inactive: 119%
14,COc1ccc(CNC(=O)CCCc2cn(C)c3ccccc23)c(OC)c1,inactive: 112%
15,O=C(CC(c1ccccc1)c1cc(Br)ccc1O)NCC1(c2ccccc2)CCCC1 (configuration not stated),inactive: 63%
16,CCOC(=O)c1ccc(NC(=O)Cc2ccc(-n3c(CC)nc4cccnc43)cc2)cc1,inactive: 86%
17,Oc1ccc(Cl)cc1Nc1nc2ccccc2n2cnnc12,inactive: 90%
18,COc1ccccc1N(Cc1cc2cccc(C)c2[nH]c1=O)C(=O)c1cccc(Cl)c1,inactive: 109%
19,Cc1oc(C2CC2)cc1C(=O)O,inactive: 125%

row,SMILES,survival
1,COc1ccc(CCn2c3c(c(=O)[nH]c2=O)C(NC(=O)c2ccccc2)(C(F)(F)F)C(=O)N3)cc1OC (configuration not stated),inactive: 72%
2,O=C(CSc1nc2ccccc2n1Cc1ccccc1)Nc1ccccn1,inactive: 113%
3,CCNC(=O)CC1C(=O)N(c2ccc(C)cc2)C(=O)N1Cc1ccc(C)cc1 (configuration not stated),inactive: 82%
4,O=C(CCS(=O)(=O)c1ccc2c(c1)NC(=O)CO2)Nc1cccc(C(F)(F)F)c1,inactive: 84%
5,COc1ccc(NC(=O)Cn2nnc(C(=O)NCc3ccccc3Cl)c2N)cc1Cl,inactive: 53%
6,NC(=O)c1cc(S(=O)(=O)N2CCCCC2)cs1,inactive: 92%
7,CCn1cc(S(=O)(=O)c2cc(C)cc(C)c2)c(=O)c2cc(F)c(N3CCC(C)CC3)cc21,inactive: 57%
8,Cc1ccc2nc(-c3ccc(C)c(NC(=O)CSc4ccc(Cl)cc4)c3)oc2c1,inactive: 73%
9,CCOc1ccc(N(C(=O)c2ccc(C)cc2)S(=O)(=O)c2ccc3c(c2)n(C)c(=O)n3C)cc1,inactive: 81%
10,O=C(NCc1ccc(Cl)cc1)c1cc2ccccc2o1,inactive: 85%
11,Cc1ccc(C)n1-c1nnc(N2CCCC(C(=O)NCc3ccc(F)cc3)C2)s1 (configuration not stated),inactive: 88%
12,Cc1ccc(Cl)cc1N1CCN(C(=O)Cn2cnc3nc4c(cc3c2=O)CCCC4)CC1,inactive: 74%
13,N#C/C(=C\c1cn(CCOc2ccccc2F)c2ccccc12)C(=O)NC1CC1,inactive: 107%
14,Cc1ccc2cccc(NC(=O)c3ccc(-c4cc(Cl)ccc4Cl)o3)c2n1,inactive: 71%
15,O=C(NCc1cccc(Br)c1)c1cccn1-c1nnc(N2CCCCC2)s1,inactive: 73%
16,CCN(CC)C(=O)Cn1c(=O)n(CCCCCC(=O)NCc2ccccc2Cl)c(=O)c2sccc21,inactive: 128%
17,COc1ccc(OC)c(NC(=O)c2ccc3c(c2)c(C)c(C)n3Cc2ccc(F)cc2)c1,inactive: 127%
18,Cc1ccc(C(=O)Nc2nc3n(n2)C(c2ccccc2)C=C(c2ccccc2)N3)cc1 (configuration not stated),inactive: 61%
19,Cc1ccc(NC(=O)Cn2c(C)cc(C)c(C#N)c2=O)cc1F,inactive: 83%

# — PubChem BioAssay AID463173 (ICCB-Longwood Screening Facility, Harvard Medical School, 2010)
